Where “and” joins values, the source holds several entries; their conditions need not be identical. Equal entries are not always repeated. The campaign covered roughly 94,000 compounds. About 4,000 (4.3%) were called active. The shares of active, inactive and inconclusive entries below differ from those in the screen. Calls follow the shape of the dose curve; as a rule, active = well fitted inhibition curve with a large enough effect; inconclusive = small, poorly fitted or top-dose-only effect; inactive = no such curve, though single readings can be large or run the other way. Potencies of inconclusive entries are doubtful fits and often do not repeat.
Assay: Cytotoxic Profiling in NIH 3T3 Cell Line of Diverse Libraries Using Quantitative High-Throughput Screening; also: nearly all actives have a fitted effect of over 55% in size
Conditions: NIH 3T3 viability, CellTiter-Glo ATP luminescence, 48-72 h; series mostly up to 96.7 µM
Method in brief: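 Cytotoxicity was measured by CellTiter-Glo ATP luminescence after 48 or 72 h compound exposure at 37 °C. Mouse NIH 3T3 fibroblasts were seeded at 400 cells/well and dosed by 23 nL pin transfer.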
Potency is read from the fitted curve at half-maximal effect; tags tell the direction and shape of the fitted curve.

SMILES | Potency
COc1ccccc1-n1c(=O)c(C(=O)N2CCOCC2)nc2cccnc21 | inactive
CCCc1nc(C(=O)N(C)Cc2cnn(-c3ccccc3C)c2)cs1 | inconclusive: 39.8 µM [inhibitor, partial curve, poor fit]
CC(CCc1ccccc1)NC(=O)CN1C(=O)NC(c2ccccc2Cl)C2=C1COC2=O (configuration not stated) | inconclusive: 44.7 µM [inhibitor, partial curve, poor fit]
COc1ccc(CN2CCN(c3nc(C)ccc3C#N)CC2CCO)cc1C (configuration not stated) | inconclusive: 50.1 µM [inhibitor, partial curve, poor fit]
O=C(Nc1cc(-c2ccncc2)nn1-c1ccccc1)C1CC1 | inconclusive: 89.1 µM [inhibitor, partial curve, poor fit]
c1cnc2nc(-c3ccncc3)[nH]c2c1 | inactive and inconclusive: 112 µM [inhibitor, partial curve, poor fit]
c1ccc(CN2CC(CNc3cccnc3)C3(C2)CN(c2ccccc2)C3)cc1 (configuration not stated) | active: 50.1 µM
O=C(COc1ccccc1)N[C@@H]1C[C@H](Cn2cc(C3CC3)nn2)[C@@H](O)[C@H]1O | inactive
COc1cc(O)ccc1CN1CCn2nnc(CCC(=O)N3CCCC3)c2C1 | inactive
O=C(NCc1ccccc1)c1cnc2n1CCN(CC1CCCC1)CC2 | inconclusive: 79.4 µM [inhibitor, partial curve]
O=C(c1ccccc1F)N1CCC2(C1)C(=O)N(CCc1ccccc1)c1ccccc12 (configuration not stated) | inconclusive: 44.7 µM [inhibitor, partial curve, poor fit] and inconclusive: 70.8 µM [inhibitor, single point]
COC(=O)CNC(=O)c1cc(-c2cc(Cl)cc(Cl)c2)c2cccn2n1 | inconclusive: 3.55 µM [inhibitor, full curve, poor fit]
COCCNC(=O)c1nc2c(o1)CCN(Cc1ccc(OC)cc1)CC2 | inconclusive: 112 µM [inhibitor, single point]
O=C(c1ccc2nccnc2c1)N1CCC2(CC1)Nc1ccccc1NC2=O | inactive
COc1ccc(-c2ccc(C(=O)N3CCCC(C)C3)c(Cl)c2)nn1 (configuration not stated) | inconclusive: 50.1 µM [inhibitor, single point]
Cc1cccc(CN2CCc3c(sc4ncnc(N(C)C)c34)C2)c1 | inconclusive: 63.1 µM [inhibitor, single point]
O=C(c1cc(F)ccc1Cl)N1CCC(Cc2nc(-c3ccccc3)no2)CC1 | inconclusive: 44.7 µM [inhibitor, partial curve, poor fit]
Cc1ccc(CC(=O)N2CCN(C(=O)c3nnn4c3COC(c3ccccc3)C4)CC2)cc1 (configuration not stated) | inactive
CC(C(=O)NCc1nc2ccccc2n1C)C1CCOCC1 (configuration not stated) | inconclusive: 79.4 µM [inhibitor, partial curve, poor fit]
COc1cc(CNC(=O)c2cnc3c(c2)N(C(=O)Cc2ccc(C(C)C)cc2)CCC3)cc(OC)c1 | inconclusive: 50.1 µM [inhibitor, partial curve, poor fit]
CCOC(=O)C1CCN(C(=O)c2cn3cc(-c4ccc(OC)cc4)sc3n2)CC1 | inconclusive: 50.1 µM [inhibitor, partial curve, poor fit]

SMILES | Potency
Cc1ccc(C(=O)N2CCc3c(nc4cc(-c5ccccc5)[nH]n4c3=O)C2)cn1 | inactive
O=C(Cc1cccc(Cl)c1)N1CCC(c2nn(-c3ccccc3)c(=O)[nH]2)CC1 | inconclusive: 39.8 µM [inhibitor, partial curve, poor fit]
CN1CCC2(C1)CN(Cc1ccccc1)c1ccc(C(=O)NC3CC3)cc12 (configuration not stated) | inactive
O=C(C1CC(=O)N(C2CCCC2)C1)N1CCN(c2ccc(Cl)cn2)CC1 (configuration not stated) | inconclusive: 39.8 µM [inhibitor, full curve]
CC(C)C[C@@H]1N[C@H](C(=O)NC2CCC2)Cc2cn(CC3CC3)c3cccc1c23 | inconclusive: 56.2 µM [inhibitor, partial curve, poor fit]
COc1ccccc1Nc1ccnc(N2CC3CCC(C2)N3CC(F)(F)F)n1 | inconclusive: 44.7 µM [inhibitor, partial curve, poor fit]
O=C(NCc1ccc(F)cc1F)c1noc(-c2ccc3c(c2)OCO3)n1 | inconclusive: 44.7 µM [inhibitor, partial curve, poor fit]
O=C1CC2(CCN(S(=O)(=O)c3cccs3)CC2)Oc2ccccc21 | inconclusive: 50.1 µM [inhibitor, partial curve, poor fit]
Cc1ccc(-n2cccc2CC(=O)NC2CCCCC2)cc1 | inconclusive: 44.7 µM [inhibitor, partial curve, poor fit]
O=C(c1ccsc1)N1CCC2(CC1)NC(=O)N(Cc1ccc(Cl)cc1)C2=O | inconclusive: 50.1 µM [inhibitor, partial curve, poor fit]
COc1ccc(-c2noc([C@@H]3Cc4nc[nH]c4CN3Cc3ccc(C)cc3)n2)cc1 | inconclusive: 56.2 µM [inhibitor, partial curve, poor fit]
Cn1ncc2c(C(=O)NCC(F)F)cc(-c3ccc(Cl)cc3)nc21 | inconclusive: 35.5 µM [inhibitor, partial curve, poor fit]
CC(C)N1C(=O)C2(CCN(C(=O)c3ccc(Cl)cc3)C2)c2ccccc21 (configuration not stated) | inconclusive: 44.7 µM [inhibitor, partial curve, poor fit]
COCCOc1ccc2c(n1)CCN(C(=O)c1ccco1)C2 | inactive
Cc1cccc(OCC(=O)N2CCc3nn(Cc4ccccc4)c(=O)n3CC2)c1 | inconclusive: 31.6 µM [inhibitor, partial curve, poor fit]
O=C(c1ccccc1F)N1CCc2nc(C3CC3)nc(-c3ccc(Cl)cc3)c2C1 | inconclusive: 10 µM [inhibitor, partial curve, poor fit]
COc1cccc(-c2ccc(NC(=O)C3CCCN3Cc3cnn(C)c3)cc2)c1 (configuration not stated) | inconclusive: 56.2 µM [inhibitor, partial curve, poor fit]
CCOc1ccccc1NC(=O)Cn1c(-c2ccc(Cl)cc2)nc(C)c(CCO)c1=O | inactive
CN(C(=O)[C@@H]1C[C@H](c2ccc(F)cc2)N([S+](=O)([O-])C2CC2)C1)c1ccccc1 | inconclusive: 56.2 µM [inhibitor, partial curve, poor fit]
OCCNc1cc(N2CCCC(CO)(Cc3ccccc3F)C2)ncn1 (configuration not stated) | inconclusive: 22.4 µM [inhibitor, full curve]
CN1C[C@H](C(=O)Nc2cccc(Cl)c2)C[C@H]1c1cccc(C(F)(F)F)c1 | active: 31.6 µM

SMILES | Potency
CN1CC(=O)N(C2CCCC2)Cc2c(NCc3cccc(Cl)c3)ncnc21 | inconclusive: 44.7 µM [inhibitor, partial curve, poor fit]
Cc1ccc(-n2cccc2CC(=O)NCc2ccc3c(c2)OCO3)cc1 | inconclusive: 44.7 µM [inhibitor, partial curve, poor fit]
CCCn1ncnc1C(C)Nc1cc(C(C)C)nc2cc(C)nn12 (configuration not stated) | active: 35.5 µM
O=C(c1ccccc1Cl)N1CCn2c(nn(-c3ccc([N+](=O)[O-])cc3)c2=O)C1 | inconclusive: 44.7 µM [inhibitor, partial curve, poor fit]
COc1ccc(CNC(=O)Cc2c[nH]c3ncc(-c4ccccc4)cc23)cc1OC | active: 39.8 µM
O=C(NC1CCCC1)NC1CCN(c2nccc(Nc3ccccc3F)n2)CC1 | inconclusive: 44.7 µM [inhibitor, partial curve, poor fit]
COc1ccc(C(=O)N2CCC[C@H]2c2nc(-c3ccccc3)no2)cc1F | inactive
O=C(N[C@@H]1CNC[C@H]1O)C1CCN(c2nc(-c3ccccc3)nc3c2CCC3)CC1 | inactive
COCCN1CCOC2(CCN(Cc3ccc(F)cc3F)CC2)C1=O | inactive
CC(C)c1noc(CN(C)C(=O)c2cc(-c3cnn(C)c3)nc3ccccc23)n1 | inactive
O=C1NCCCCCCN(C(=O)NCCc2ccccc2)[C@H]2CCC[C@@H]12 | inactive
Cc1ccc(Nc2ccnc(N3CCC(C(=O)N4CCCCC4)CC3)n2)cc1 | inconclusive: 50.1 µM [inhibitor, partial curve, poor fit]
COc1ccccc1CNC(=O)CCC[C@H]1NC[C@@H]2C[C@H]1CN(Cc1ccccc1)C2 | inactive
COc1ccc(OC)c(S(=O)(=O)N[C@H]2CO[C@H]3[C@@H]2OC[C@H]3OC(=O)Nc2ccc(Oc3ccccc3)cc2)c1 | inconclusive: 39.8 µM [inhibitor, partial curve, poor fit]
COc1ccc(NC(=O)C2CC(=O)N(c3n[nH]c4cccc(F)c34)C2)cc1 (configuration not stated) | inconclusive: 35.5 µM [inhibitor, single point]
CN(c1ccccc1)c1ccc2nnc(-c3cc(C(=O)NCCc4ccccc4)ccn3)n2n1 | inconclusive: 3.55 µM [inhibitor, full curve, poor fit]
CC(C)Oc1cccc(-c2nc(C(=O)NCc3ccccc3)cs2)c1 | inconclusive: 70.8 µM [inhibitor, partial curve, poor fit]
Cc1ccc(C2Cn3nnc(C(=O)N4CCC(C(=O)NCc5cccc(Cl)c5)CC4)c3CO2)cc1 (configuration not stated) | inactive
COc1ccc(-c2cc(N3CCCC(NC(=O)c4cc(C)ccc4C)C3)n[nH]2)cc1 (configuration not stated) | active: 31.6 µM
Fc1ccc(-c2ccc3ncc(Nc4ccncc4)n3n2)cc1 | inconclusive: 56.2 µM [inhibitor, partial curve, poor fit]
